Assay results as given in PubChem BioAssay AID686978 (National Center for Advancing Translational Sciences (NCATS), 2013).
Hit rate of the full screen: of about 420,000 compounds, about 64,000 (15%) were called active. The shares of active, inactive and inconclusive entries below differ from those in the screen. Calls follow the shape of the dose curve; as a rule, active = well fitted inhibition curve with a large enough effect; inconclusive = small, poorly fitted or top-dose-only effect; inactive = flat fitted curve, though single readings scatter. No potency is given beside an inconclusive call; the fits are too rough.

Assay: qHTS for Inhibitors of human tyrosyl-DNA phosphodiesterase 1 (TDP1): qHTS in cells in absence of CPT; also: nearly all actives have a fitted effect of over 55% in size
Conditions: DT40 Tdp1-/- hTDP1 cells, no CPT, ATP luminescence, 48 h; activity change, negative = growth inhibition: at 46.2 µM (top of the series) unless noted
How it was run: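 Seeded 400 DT40-hTDP1 cells/well (vehicle DMSO, no 20 nM CPT); pinned compounds; ≥48 hr at 37 °C; CellTiter-Glo luminescence as viability measure.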
% is scaled to controls: 0 for no effect and ±100 for the full control effect; potency is read from the fitted curve at half-maximal effect; tags tell the direction and shape of the fitted curve.

SMILES | Potency | activity change, negative = growth inhibition
CCC(C)(C)NC(=O)C(c1cccn1C)N(Cc1ccc(OC)cc1)C(=O)Cn1nnc2ccccc21 (centres undefined) | inconclusive [inhibitor, single point] | 
CC/C=C\C/C=C\C/C=C\CCCCCCCC(=O)O | inactive | 
Cc1cccc(CSc2nnc(CCCCCNC(=O)OC(C)(C)C)o2)c1 | active: 16.4 µM | 
O=C(O[C@@H]1[C@H](Cc2ccccc2)NS(=O)(=O)[C@H]2C[C@@H]3C=C[C@]12O3)c1ccccc1Br | active: 16.4 µM | 
Cc1cc(Nc2ccccc2C)n2nc(Cc3ccc(Cl)cc3)nc2n1 | inconclusive [inhibitor, partial curve] | 
O=S(=O)(c1c(Cl)sc(Cl)c1Br)N1CCCC1 |  | inconclusive: -35.9% [inhibitor]
Cc1ccn2c(Nc3ccc4c(c3)OCCO4)c(-c3ccc(C)o3)nc2c1 | inconclusive [inhibitor, single point] | 
CNc1c(NS(=O)(=O)c2ccc(C(C)(C)C)cc2)c(=O)oc2ccccc12 | inconclusive [inhibitor, partial curve] | 
O=C(/C=C/c1ccccc1)NCC(=O)N/N=C/c1ccccc1[N+](=O)[O-] |  | inconclusive: -33.1% [inhibitor]
CC(=O)c1ccc(NC(=O)c2ccc3c(c2)N(Cc2cccc(Cl)c2)C(=O)c2ccccc2S3=O)cc1 (centres undefined) | inconclusive [inhibitor, partial curve] | 
Cn1c(CN2CCCC2)nc2cc(NC(=O)COc3ccc([N+](=O)[O-])cc3)ccc21 | inconclusive [inhibitor, partial curve] | 
Cc1ccccc1-c1nc(CN2CCC(C(=O)NCc3ccc(F)cc3)CC2)c(C)o1 | active: 20.6 µM | 
CCc1ccc(NCc2nc3ccccc3c(=O)[nH]2)cc1 | inactive | 
COCCNC(=O)C1(C)CCN(C(=O)c2nc(C)oc2C)C1 (centres undefined) | inactive | 
COc1ccc(OC)c(CNS(=O)(=O)c2cn(C)cn2)c1 | inactive | 
CCN(CC)C(=O)c1ccc(-c2nnc(OC)c3ccccc23)cc1 | inconclusive [inhibitor, single point] | 
CCOC(=O)c1c(NC(=O)COC(=O)CNC(=O)c2ccco2)sc(C)c1C | inconclusive [inhibitor, single point] | 
C[C@H](CO)N1C[C@H](C)[C@@H](CN(C)S(=O)(=O)c2ccccc2)OCCCC[C@H](C)Oc2ccc(NC(=O)CCC(F)(F)F)cc2C1=O | inconclusive [inhibitor, single point] | 
O=C(COc1ccc(Br)cc1)N/N=C1/SCC(=O)N1Cc1ccccc1 |  | inconclusive: -32.6% [inhibitor]
Cc1c(C(=O)COC(C)(C)C)[nH]c2ccccc12 | inconclusive [inhibitor, single point] | 
Cc1ccc(Cn2c(SCCN3CCCCC3)nc3c2c(=O)n(C)c(=O)n3C)cc1 | active: 14.6 µM | 
CC(NC(=O)CN1C(=O)NC2(CCc3ccccc32)C1=O)c1ccccc1 (centres undefined) | inactive | 
CCS(=O)(=O)N(CC(=O)Nc1cccc2ccccc12)c1ccc(OC)cc1 | inconclusive [inhibitor, partial curve] | 

SMILES | Potency | activity change, negative = growth inhibition
CCOc1cc(CN2CCN(C(=O)CC(C)C)CC2)ccc1OC | inactive | 
COc1ccc(NC(=O)c2cc3c(s2)-c2c(C)cccc2OC3)cc1Cl | inconclusive [inhibitor, single point] | 
Clc1cccc(CSc2nnc(-c3cccnc3)n2Cc2ccco2)c1 | inconclusive [inhibitor, single point] | 
COc1cccc(C(=O)Nc2cccc(-c3ccccc3)c2)c1 | inconclusive [inhibitor, single point] | 
N#C/C(=C\c1ccc(OC(=O)c2ccc(Cl)s2)cc1)c1nc2ccccc2[nH]1 | inconclusive [inhibitor, single point] | 
CCCN(CCC)c1ccc(C2N=C(N)Nc3nc4ccccc4n32)cc1 (centres undefined) | active: 16.4 µM | 
N#Cc1nc(COc2ccc(F)cc2)oc1N1CCC(Cc2ccccc2)CC1 | inconclusive [inhibitor, single point] | 
CC(=O)Nc1sc(N/N=C/c2ccc(C)cc2)nc1-c1ccc(C)cc1 | inconclusive [inhibitor, full curve, poor fit] | 
O=C(COc1cccc(C(F)(F)F)c1)NCC(c1ccco1)N1CCCC1 (centres undefined) | inconclusive [inhibitor, partial curve] | 
CNc1nc2sc3c(c2c(=O)n1C)CC(C)(C)SC3 | inconclusive [inhibitor, single point] | 
CCOc1cc(C(=O)Nc2ccc(-c3cn4cccnc4n3)cc2)cc(OCC)c1OCC | active: 9.2 µM | 
CC(C)Cc1nnc(NC(=O)CCC(=O)NC2CCCCCC2)s1 | inactive | 
CCOC(=O)c1c(NC(C)=O)sc2c1CCC(C=NCCCN(CC)CC)=C2Sc1ccccc1 | active: 13 µM | 
Cc1nc2c(ccc3nc(NC(=O)C4CC4)sc32)s1 | inconclusive [inhibitor, single point] | 
Cc1nc2c(sc(=S)n2Cc2ccco2)c(=O)n1CC(=O)Nc1cc(F)ccc1F | inconclusive [inhibitor, single point] | 
Cn1cccc1Cc1nnc(SCC(=O)NCc2ccccc2Cl)n1-c1ccc(F)cc1 | inconclusive [inhibitor, single point] | 
COC(=O)[C@@H](NCc1cccc(CN([C@H](C(=O)OC)C(C)C)S(C)(=O)=O)c1)C(C)C | inconclusive [inhibitor, single point] | 
COc1ccc(-c2cc(COc3ccccc3)on2)cc1 |  | inconclusive: -30.6% [inhibitor]
Cc1c(C(=O)N(C)C2CC(C)(C)NC(C)(C)C2)oc2c(F)cccc12 | inconclusive [inhibitor, single point] | 
O=C(NCc1ccccc1)c1ccc(NC(=O)N2CC3CCCN3c3ccccc32)cc1 (centres undefined) | inconclusive [inhibitor, single point] | 
CCOC(=O)c1c(C)[nH]c(C)c1C(=O)COC(=O)[C@@H](NC(=O)c1ccco1)C(C)C | inactive | 
Cn1c(=O)oc2cc(S(=O)(=O)CCC(=O)N3CCN(c4cccc(Cl)c4)CC3)ccc21 | active: 11.6 µM | 
Cc1ccc2occ(/C=N/NC(=O)[C@@H](N)Cc3ccccc3)c(=O)c2c1 | inconclusive [inhibitor, partial curve] | 

SMILES | Potency | activity change, negative = growth inhibition
Cc1ccc(C)c(N2CCN(S(=O)(=O)c3cc(C(=O)Nc4ccc(Oc5ccccc5)cc4)ccc3F)CC2)c1 | inconclusive [inhibitor, partial curve] | 
CCOc1cc(N2CCOCC2)c(OCC)cc1NC(=O)COc1cccc(Cl)c1 | active: 2.59 µM | 
O=C(O)c1c2cc(Br)ccc2nc2[nH]c(=O)[nH]c(=O)c12 | inactive | 
COc1ccc(Br)cc1CNC(=O)c1cnc2sc(N3CCC(C)CC3)nn2c1=O | inconclusive [inhibitor, partial curve] | 
CCOc1[nH]n(-c2ccc(Cl)cc2)c(=O)c1C=NCc1cccnc1 | inconclusive [inhibitor, single point] | 
CN(C)c1ccc(N=Cc2nc(-c3ccccc3)oc2OC(=O)c2cccc(Cl)c2)cc1 | inconclusive [inhibitor, single point] | 
C[C@H](NC(=O)[C@H]1N2C(=O)c3ccccc3C2SC1(C)C)C(=O)N1CCC[C@H]1C(=O)O (some centres undefined) | inactive | 
O=C(N/C(=C/c1cccc(Br)c1)c1nc(=S)[nH][nH]1)c1ccccc1 | inconclusive [inhibitor, single point] | 
O=C(CSc1nc2ccccc2c(=O)n1Cc1ccc(F)cc1)NCc1cccs1 | inactive | 
CCn1c(N2CCC(C)CC2)nc2c1c(=O)n(C)c(=O)n2C | inconclusive [inhibitor, partial curve] | 
Cc1ccc(NC(=O)CN(C)C(=O)c2cccc(S(=O)(=O)NCc3ccco3)c2)cc1 | inactive | 
CCCCNC(=O)CCCCCn1c(=O)[nH]c2ccccc2c1=O | inconclusive [inhibitor, single point] | 
CCC(C)N1C(=O)CN(C2CCCCCC2)C(=O)C1c1ccccc1F (centres undefined) | inconclusive [inhibitor, partial curve] | 
O=C(Oc1ccccc1)N1CCN(c2ccccc2F)CC1 | inconclusive [inhibitor, full curve] | 
CCc1ccc(NC(=O)CN2C(=O)c3cccc4cccc2c34)cc1 | inactive | 
CCCn1c(C)cc(C(=O)COc2ccc(S(=O)(=O)N(CC)CC)cc2[N+](=O)[O-])c1C | active: 23.1 µM | 
O=C(O)CCc1cc(I)c(O)c(I)c1 | inactive | 
O=C(CCN1CCN(c2ccccc2F)CC1)c1ccc(Br)cc1 | active: 2.91 µM | 
Cc1ccc(S(=O)(=O)c2nnn3c2nc(NCc2ccc4c(c2)OCO4)c2sccc23)cc1C | active: 23.1 µM | 
O=c1ccc(NS(=O)(=O)c2ccccc2Cl)cn1Cc1ccc(Cl)c(Cl)c1 | inactive | 
COc1ccc(OC)c(CN2CCN(c3ccccc3OC)CC2)c1 |  | inconclusive: -33.2% [inhibitor]
C=CCNC(=O)c1cc2cc(Cl)ccc2nc1N | inconclusive [inhibitor, partial curve] | 
Cc1ccc(C(C)NC(=O)Cn2nc(C)c([N+](=O)[O-])c2C)cc1 (centres undefined) | inconclusive [inhibitor, single point] | 
